{"source": "PubChem BioAssay AID488969", "about": "(Vanderbilt High Throughput Screening Facility, 2010)", "note": "Whole data set: some 110,000 compounds, median “z-score” near -0.1, cut for the highest 2% near 2. This is one part of the list. Calls of active or inactive are those of the source.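 Rule for the calls: active = z-score in the third read window above 3 or below -3; inactive = the rest.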"}
{"molecular_target": "Metabotropic glutamate receptor 8 (Rattus norvegicus) (UniProt P70579)", "sequence (P70579 whole entry, looked up)": "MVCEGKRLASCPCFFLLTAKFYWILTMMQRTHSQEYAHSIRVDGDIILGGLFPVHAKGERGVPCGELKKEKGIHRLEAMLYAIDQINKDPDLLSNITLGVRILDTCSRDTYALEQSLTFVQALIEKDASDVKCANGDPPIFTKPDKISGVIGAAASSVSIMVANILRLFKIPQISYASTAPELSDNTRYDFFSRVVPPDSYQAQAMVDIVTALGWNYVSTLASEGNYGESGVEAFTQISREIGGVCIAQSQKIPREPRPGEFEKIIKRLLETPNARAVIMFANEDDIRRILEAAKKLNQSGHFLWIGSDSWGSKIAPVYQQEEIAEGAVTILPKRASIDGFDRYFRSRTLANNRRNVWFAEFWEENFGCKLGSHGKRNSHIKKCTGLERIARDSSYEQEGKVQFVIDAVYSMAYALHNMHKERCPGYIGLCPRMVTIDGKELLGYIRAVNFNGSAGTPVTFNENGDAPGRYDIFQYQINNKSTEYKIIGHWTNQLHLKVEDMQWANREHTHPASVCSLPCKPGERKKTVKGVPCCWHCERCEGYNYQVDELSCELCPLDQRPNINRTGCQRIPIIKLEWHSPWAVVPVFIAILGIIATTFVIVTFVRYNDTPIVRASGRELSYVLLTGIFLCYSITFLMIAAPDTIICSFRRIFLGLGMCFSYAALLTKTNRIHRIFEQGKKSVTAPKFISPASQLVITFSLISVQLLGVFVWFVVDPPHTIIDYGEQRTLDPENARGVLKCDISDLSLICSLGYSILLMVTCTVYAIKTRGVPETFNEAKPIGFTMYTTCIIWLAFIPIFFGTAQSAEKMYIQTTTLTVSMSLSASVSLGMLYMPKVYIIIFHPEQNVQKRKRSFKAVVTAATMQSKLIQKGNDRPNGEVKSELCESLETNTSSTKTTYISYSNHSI", "experiment": "rat mGluR8 modulators via GIRK flux, primary screen, cell-based, thallium flux, HTS (AID 488969)", "details": "HEK293 rat mGluR8, GIRK (G protein-gated inwardly rectifying potassium channel) thallium flux, FluoZin2; at 10 µM; stronger effect = higher value; submaximal glutamate (EC20) added with thallium"}
{"smiles": "COC(=O)c1ccccc1NC(=O)c1cc(-c2cccs2)on1", "z-score": 0.00128}
{"smiles": "COC(=O)[C@H](Cc1ccccc1)NC(=O)Nc1ccc(C)cc1", "z-score": -0.0415}
{"smiles": "CCc1ccc(NC(=O)c2ccnc(C(C)(C)C)c2)cc1", "z-score": -0.442}
{"smiles": "Cc1cncn1CCc1nc2c3ccccc3nc(=S)n2[nH]1", "z-score": -0.535}
{"smiles": "O=C(NCc1ccco1)Nc1ccc(Br)cc1Cl", "z-score": -0.793}
{"smiles": "COc1cccc(N2CCN(C(=O)CN(c3ccc(C)cc3)S(=O)(=O)c3c(C)n[nH]c3C)CC2)c1", "z-score": -0.164}
{"smiles": "CCOc1cc(C2NN=C(c3ccccc3)S2)ccc1OCc1ccc(F)cc1", "note": "(stereo not given)", "z-score": 0.745}
{"smiles": "c1ccc(C(c2ccccc2)N2CCN(c3ccc4ccccc4n3)CC2)cc1", "z-score": 0.302}
{"smiles": "C=CCc1cc(/C=C2/NC(=O)N(CC)C2=O)cc(OCC)c1OCc1ccc(C(=O)O)cc1", "z-score": -0.929}
{"smiles": "COCc1cc(C)nc2sc(C(=O)N3CCCCC3)c(N)c12", "z-score": 0.33}
{"smiles": "O=C(Nc1nnc(SCc2ccccc2Cl)s1)c1cccc([N+](=O)[O-])c1", "z-score": -0.265}
{"smiles": "COc1cccc(-n2nnnc2SCC(=O)Nc2ccc(C(C)=O)cc2)c1", "z-score": 0.36}
{"smiles": "O=C(COc1ccccc1[N+](=O)[O-])OCC(=O)N1CCC(Cc2ccccc2)CC1", "z-score": -0.405}
{"smiles": "CCOc1ccc(-c2onc(C(F)(F)F)c2-c2cscn2)c(O)c1", "z-score": 0.591}
{"smiles": "COc1ccc(/C=N/NS(=O)(=O)c2ccc(C)cc2)cc1OC(=O)c1ccccc1", "z-score": -0.489}
{"smiles": "Cc1ccc(-c2c(C(=O)N3CCOCC3)oc(=O)c3ccccc23)cc1", "z-score": -0.469}
{"smiles": "CCOC(=O)CN1C(=O)C(=O)c2cc(C)ccc21", "z-score": 1.48}
{"smiles": "CS(=O)(=O)N1CCC(C(=O)NCC2CCCO2)CC1", "note": "(stereo not given)", "z-score": 0.122}
{"smiles": "CCn1c(=O)n(CCOC)c(=O)c2c3c(sc21)CCCC3", "z-score": -0.826}
{"smiles": "CSc1nc(SCC(=O)NC(c2ccccc2)c2ccccc2)c2c3c(sc2n1)CN(C)CC3", "z-score": -0.192}
{"smiles": "O=C1c2ccccc2C(=O)N1CCCOc1ccccc1", "z-score": -1.34}
{"smiles": "O=C(CN1CCC(C(O)(c2ccccc2)c2ccccc2)CC1)Nc1ccccc1", "z-score": 0.347}
{"smiles": "CCCC(=O)NC(=S)Nc1ccc(NC(=O)C(C)C)c(OC)c1", "z-score": 0.343}
{"smiles": "Cc1cccc(C(=O)N/N=C/c2ccc3c(c2)OCO3)n1", "z-score": -0.0578}
{"smiles": "CN1C(=O)CC(NNC(=O)c2ccc(Cl)cc2)C1=O", "note": "(stereo not given)", "z-score": -0.0158}
{"smiles": "C=CCSc1nc(N(CC)CC)c2sccc2n1", "z-score": -2.12}
{"smiles": "CN(Cc1ccccc1)c1nc2c(c(=O)[nH]c(=O)n2C)n1Cc1ccccc1Cl", "z-score": 0.126}
{"smiles": "N#CCCn1cc(C=C(C#N)C#N)c(-c2ccc(-c3ccccc3)cc2)n1", "z-score": -0.227}
{"smiles": "CCOc1ccc(NC(=O)CN(C)S(=O)(=O)c2cccs2)cc1", "z-score": -0.559}
{"smiles": "COC(=O)C1Sc2[nH]c(=O)sc2C2c3ccccc3OC(=O)C12", "note": "(stereo not given)", "z-score": -0.877}
{"smiles": "COC(=O)CCSc1cc(NCCOC(C)=O)c([N+](=O)[O-])c2nonc12", "z-score": -0.0935}
{"smiles": "Cc1ccc(-c2ccc(=O)n(CC(=O)NCc3ccco3)n2)cc1", "z-score": -0.117}
{"smiles": "Cc1ccc(N(C(C)C(=O)Nc2ccc(S(=O)(=O)N3CCOCC3)cc2)S(C)(=O)=O)cc1", "note": "(stereo not given)", "z-score": 0.137}
{"smiles": "Cc1ccc(CNC(=O)COC(=O)c2c(C)noc2C)cc1", "z-score": 0.134}
{"smiles": "CC(=O)Oc1cccc(N2C(=O)CC(Nc3ccc(N4CCOCC4)cc3)C2=O)c1", "note": "(stereo not given)", "z-score": -0.44}
{"smiles": "CCOC(=O)c1sc(NC(=O)CSc2nc3c(cc2C#N)CCC3)c(C#N)c1C", "z-score": -0.132}
{"smiles": "Cc1onc(-c2ccccc2Cl)c1C(=O)Nc1nnc(-c2ccc(Cl)cc2Cl)s1", "z-score": -0.0464}
{"smiles": "Cc1c(F)cccc1NC(=O)CCC(=O)O", "z-score": 0.0375}
{"smiles": "Cc1ccccc1Cn1c(C(=O)OC(C)C)cc2c1ccn2C", "z-score": 0.526}
{"smiles": "CCN(CC)S(=O)(=O)c1cccc(-c2nnc(SC(C)C(N)=O)n2CCc2ccccc2)c1", "note": "(stereo not given)", "z-score": -0.152}
{"smiles": "CCN(CC)c1ncnc2sc3c(c12)CCC3", "z-score": -1.8}
{"smiles": "CCOCc1cnc(C)nc1NCC(=O)c1c(C)[nH]c2ccc(OC)cc12", "z-score": 0.113}
{"smiles": "CCCn1c2ccccc2c2nnc(SC(CC)C(=O)Nc3cc(C)on3)nc21", "note": "(stereo not given)", "z-score": 1.42}
{"smiles": "Cc1ccc2cc(-c3noc(C(C)(C)C)n3)c(=O)[nH]c2c1", "z-score": -1.58}
{"smiles": "C=CCNC(=O)c1cc2nc(C3CC3)cc(C(F)F)n2n1", "z-score": -0.112}
{"smiles": "O=C(CN1CCOCC1)Nc1nc2ccc(F)cc2s1", "z-score": -0.00921}
{"smiles": "Cc1ccc(S(=O)(=O)CC(=O)c2ccccc2)cc1", "z-score": -0.00758}
{"smiles": "N/C(Cc1ccc(Cl)cc1Cl)=N\\OC(=O)Cc1cccs1", "z-score": -0.0476}
{"smiles": "CCS(=O)(=O)N1CCC(C(=O)NCCCN2CCCCCC2)CC1", "z-score": -0.116}
{"smiles": "Cc1csc(N(C(=O)c2cccc(S(=O)(=O)N3CCCC3)c2)c2ccccc2)n1", "z-score": -0.475}
{"smiles": "CCOC(=O)C1C(=O)C=C(N2CCOCC2)CC1c1cccc(OC)c1", "note": "(stereo not given)", "z-score": 0.312}
{"smiles": "CN(C)C(=O)Cn1c(SCC(=O)NC2CCCCC2)nc2ccccc21", "z-score": 0.226}
{"smiles": "O=C(Cc1ccccc1)N1CCN=C1SCc1ccc([N+](=O)[O-])cc1", "z-score": -0.0675}
{"smiles": "O=S(=O)(NCC1COc2ccccc2O1)c1ccc2ccccc2c1", "note": "(stereo not given)", "z-score": -0.0854}
{"smiles": "O=C(COC(=O)CCCc1nc2ccccc2s1)Nc1ncc(Cl)cc1Cl", "z-score": -1.07}
{"smiles": "CCOc1ccc(S(=O)(=O)c2c(C(=O)c3ccccc3)cnc3cc4c(cc23)OCCO4)cc1", "z-score": -0.174}
{"smiles": "Cc1ccccc1C(=O)NC(=S)Nc1sc2c(c1C#N)CCCC2", "z-score": "active: 5.02"}
{"smiles": "N#Cc1nc(COc2ccccc2F)oc1NCCCn1ccnc1", "z-score": -0.273}
{"smiles": "COc1cc(C2C(C#N)=C(C)NC3=C2C(=O)CC(C)(C)C3)ccc1O", "note": "(stereo not given)", "z-score": -0.333}
{"smiles": "O=C(Nc1ccc(Cl)cc1)OCc1cn(-c2ccc(Cl)cc2)nn1", "z-score": -0.379}
{"smiles": "Cc1ccc(NC(=O)Cn2cccc2)cc1Cl", "z-score": 2.51}
{"smiles": "Cc1ccc(S(=O)(=O)Nc2nc(C)c(C(=O)Nc3ccccc3)s2)cc1", "z-score": -0.207}
{"smiles": "CC(C)c1cc(C(N)=O)c(NC(=O)c2cccc(COc3ccc(Cl)cc3)c2)s1", "z-score": -0.0602}
{"smiles": "O=C(c1ccccc1Oc1ccccc1)N1CCN(c2ccccc2)CC1", "z-score": -0.457}
{"smiles": "Cc1cccc(/C=C2/S/C(=N/N=C3\\CC4CCC3(C)C4(C)C)NC2=O)c1", "note": "(stereo not given)", "z-score": 0.879}
{"smiles": "CCCOc1ccc(C2NC(=S)NC(C)=C2C(=O)c2ccccc2)cc1OC", "note": "(stereo not given)", "z-score": -0.572}
{"smiles": "O=C(NCCn1ccc2ccccc21)c1ccc(S(=O)(=O)N2CCOCC2)cc1", "z-score": -0.259}
{"smiles": "Cc1ccc(N2C(=O)c3ccc(C(=O)O)cc3C2=O)cc1C", "z-score": -0.785}
{"smiles": "C=C(C)c1cccc(C(C)(C)NC(=O)N2CCN(C)CC2)c1", "z-score": -0.103}
{"smiles": "O=C(OCc1cc2ccccc2[nH]c1=O)C1CCCO1", "note": "(stereo not given)", "z-score": 0.511}
